Results reported in patent US20180326005A1 (HEAT BIOLOGICS, published 2018).

What was measured:
FcγR2B = biological target: T1, FcγR2B (human, UniProt P31994 46-217, limits assumed); experiment: SPR, chip-bound Fc receptor
T1 sequence (looked up): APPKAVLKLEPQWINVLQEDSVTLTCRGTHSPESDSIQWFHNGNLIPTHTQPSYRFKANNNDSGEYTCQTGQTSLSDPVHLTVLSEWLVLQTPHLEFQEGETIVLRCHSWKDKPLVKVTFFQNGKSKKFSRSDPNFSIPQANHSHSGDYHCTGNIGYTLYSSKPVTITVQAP

neonatal receptor FcRn = biological target: T2, neonatal receptor FcRn (human, UniProt P55899 partial chain; P61769 partial chain); experiment: SPR, chip-bound Fc receptor
T2 construct: also called recombinant human FcRn

binding result (FcγR2B): no binding
Kd (neonatal receptor FcRn): 790 nM
B1: human CD172a-Fc-OX40L (Fc fusion)
chain: [… about 350 residues …]SKYGPPCPSCPAPEFLGGPSVFLFPPKPKDTLMISRTPEVTCVVVDVSQEDPEVQFNWYVDGVEVHNAKTKPREEQFNSTYRVVSVLTVLHQDWLSGKEYKCKVSSKGLPSSIEKTISNATGQPREPQVYTLPPSQEEMTKNQVSLTCLVKGFYPSDIAVEWESNGQPENNYKTTPPVLDSDGSFFLYSRLTVDKSSWQEGNVFSCSVMHEALHNHYTQKSLSLSLGKIEGRMDQVSHRYPRIQSIKVQFTEYKKEKGFILTSQKEDEIMKVQNNSVIINCDGFYLISLKGYFSQEVNISLHYQKDEEPLFQLKKVRSVNSLMVASLTYKDKVYLNVTTDNTSLDDFHVNGGELILIHQNPGEFCVL
notes: The entry includes the native leader; no cleavage site is stated; also called hCD172a-Fc-OX40L
